From publication PMC8580143, “Frontotemporal Lobar Dementia Mutant Tau Impairs Axonal Transport through a Protein Phosphatase 1γ-Dependent Mechanism” (The Journal of Neuroscience, 2021)

B1: P301L mutant human tau (hT40, 2N4R) with C-terminal NanoLuciferase (natural protein)
chain: not shown
notes: microtubule-associated protein tau, human, full-length hT40 (2N4R) isoform with the inherited FTLD mutation P301L; Point mutation made by site-directed mutagenesis; also called P301L tau; FTLD mutant tau; source: HEK293T, transfected (pCMV), in lysate (pull-down) or in living cells (nBRET); not shown: NanoLuciferase, C-terminal, kept
B2: R5L mutant human tau (hT40, 2N4R) with C-terminal NanoLuciferase (natural protein)
chain: not shown
notes: microtubule-associated protein tau, human, full-length hT40 (2N4R) isoform with the inherited FTLD mutation R5L; Point mutation made by site-directed mutagenesis; also called R5L tau; FTLD mutant tau; source: HEK293T, transfected (pCMV), in lysate (pull-down) or in living cells (nBRET); not shown: NanoLuciferase, C-terminal, kept

What was measured:
Settings in all cases: partners not purified
[1] = biological target: T1, HaloTag-protein phosphatase 1 alpha; assay: pull-down; HaloTag-based pull-down: tau-NanoLuc and Halo-PP1 (or HaloTag only) co-expressed in HEK293T; lysate (1% Triton X-100, 150 mM NaCl, pH 7.5) on HaloLink resin 1 h; eluted tau blotted (R1 antibody) and normalised to the change in Halo signal; n = 4
T1 construct: protein phosphatase 1 catalytic subunit, alpha isoform; In nBRET the HaloTag carries the 618 ligand (acceptor fluorophore); also called Halo-PP1α; PP1α; source: HEK293T, transfected (pCMV), in lysate (pull-down) or in living cells (nBRET); not shown: HaloTag, N-terminal, kept

[2] = biological target: T2, HaloTag-protein phosphatase 1 gamma 1; assay: as above
T2 construct: protein phosphatase 1 catalytic subunit, gamma isoform, splice form PP1γ1; In nBRET the HaloTag carries the 618 ligand (acceptor fluorophore); also called Halo-PP1γ; PP1γ; source: HEK293T, transfected (pCMV), in lysate (pull-down) or in living cells (nBRET); not shown: HaloTag, N-terminal, kept

[3] = biological target: T3, HaloTag-protein phosphatase 1 beta (UniProt P62140); assay: as above
T3 construct: protein phosphatase 1 catalytic subunit, beta isoform; In nBRET the HaloTag carries the 618 ligand (acceptor fluorophore); also called Halo-PP1β; PP1β; source: HEK293T, transfected (pCMV), in lysate (pull-down) or in living cells (nBRET); not shown: HaloTag, N-terminal, kept

[4] = biological target: T1, HaloTag-protein phosphatase 1 alpha; assay: FRET or BRET; nBRET in living HEK293T cells at a single acceptor:donor DNA ratio of 100:1, four independent replicates; corrected ratio in mBU; Halo-only controls gave 5.168-5.814 mBU
[5] = biological target: T2, HaloTag-protein phosphatase 1 gamma 1; assay: as above

Binder | tau in the pull-down elution, normalised to the change in Halo signal [1] | tau in the pull-down elution, normalised to the change in Halo signal [2] | tau in the pull-down elution, normalised to the change in Halo signal [3] | corrected nBRET ratio at acceptor:donor DNA 100:1 [4] [mBU] | corrected nBRET ratio at acceptor:donor DNA 100:1 [5] [mBU]
B1 | 0.673 ratio of signal intensities, arbitrary units | 0.54 ratio of signal intensities, arbitrary units | 0.061 ratio of signal intensities, arbitrary units | 20.4 | 20.4
B2 | 0.107 ratio of signal intensities, arbitrary units | 0.111 ratio of signal intensities, arbitrary units | – | 10.2 | 8.94
